# Reference: the RNAGym collection of RNA variant scans (doi:10.7554/elife.90254)
# The source gives no read counts; variants with many changes may rest on few reads.
# B1: OR4K15 (parent)
# chain: GUUAACGGUCAUAGGCCAUGGAAACUAGGAGCACCAUUUCGCUGCCAGUGAAGAAAUGAACAAAGAAAAUCUGGGCCAGGCAGGCAUCAAAAGAAAUAGUCUUGCGCUCAACCAGAAAGUCUGUAAUCAUUUUAAGGGUA
# Variants of: B1
# Test: self-cleavage, relative activity (ratio to wild type); higher = more cleavage; in vitro, sequencing; the parent is a self-cleaving ribozyme
row,Variant,self-cleavage
1,C35A A96G U100C,1.89
2,A36G U43A A126G U133C,0.57
3,C34U A62C U72A A82U A134G,0
4,A36G U97A A110G A129G,0.02
5,A36G U49C A63G,1.81
6,U37C U43C U131C,1.88
7,U37C A56G A68G A86G,1.04
8,A36G A91G A92G A110G,0.08
9,U37C A62G U70C A140G,0.48
10,A33U A62G A92G,2.33
11,U37C A54G A96G,1.72
12,U37C A78G A92U U108C,0.04
13,A33U A54U C76U A126G U132C,0.08
14,C35U A59G A90G,0.46
15,A33U U38A A62U,1.58
16,C34G A51G U131C,1.11
17,U37C A90G U103C C113U,0.02
18,U37C A47G A55U A94G,0.77
19,A36U C45U A69G U127G,0.71
20,A36G U49C G79A,0.1
21,C35U U43C A67G,0.88
22,A36U A86G U100A A114C,0.02
23,A36G A47G A67G A89G,1.04
24,A36U A67G C109U A110G A116G A134G,0.01

row,Variant,self-cleavage
1,A36C A56G A90G,0.71
2,C34U A47G A94G,0.74
3,U37C A67G U103C A118G U127A U139C,0.88
4,U37C A47G A63G U87C,1.31
5,A36U U43A C45U A69U U72C U102A,0.28
6,U37C C40A A92G,1.02
7,C34U U72A A95G A98G U108C A114U,0
8,A36G A66G U97C U103C,0.76
9,C34U U43A U139C,1.87
10,U37C A114U A117G,0.04
11,U37C A90G U108A,0.02
12,A36G A55G A59G U97C U131C,0.49
13,U37C A68U U139C,1.48
14,A36U A56G A89G A96G A114G,0.18
15,U37C A51G A66G C128U,0.65
16,A36U A67G U103C U130C,0.48
17,U37C A89C A134G,1.2
18,A36G A52G U120A,2.38
19,U37C A90G G119A A126G,0.58
20,U37C A62G U100C A116G,1.42
21,U37C U43C A55G,1.4
22,A33U U87C A117G,1.73
23,U37C A69G A111G,0.04
24,U37C C40U A91G,0.74

row,Variant,self-cleavage
1,U37C A78U A126G,0.46
2,U37C A55G U100C A110G,0.18
3,A36G A95G U120C,1.34
4,U37C A62U A95G,1.19
5,A36G A55U A60G U100C U108C,0.04
6,U37C A62G U124C,0.84
7,U37C A56G U120C,0.59
8,A36G U37C A63G,0.93
9,A36C A90G A92G U97C U100C A116G,0.95
10,A36U A69U U102C U139C,1.24
11,A33U C112A U122G,0.01
12,C35U A66U A140U,0.6
13,A36U A51G U72C A95G,0.48
14,A33U A55G U70A A89U,1.26
15,C34U A69U U72C,0.19
16,A36G A47G A82G A111G A117G,0.01
17,A36G A54G A78C,0.32
18,A36C A63G U70C C105A,0.04
19,A33G U102C U130C,1.22
20,C35G A56U U102C A117G,2.11
21,A33U U43C A59U,1.52
22,A36U U39C C46A,1.48
23,A36G A64C A67G A90G A98G,0.82
24,A36G A78G A92G,0.23

row,Variant,self-cleavage
1,A36U A63G U72A A91G U103C,0.1
2,U37C A51U U57G A116G,0.36
3,U37C C46U A67U A89G A96G,1.31
4,A33U U38C U43C A60G A69G G73A,0.14
5,C34G U87C A95G U127C,0.69
6,U37C A52G G65A A66G G74A,0.19
7,A33U U38C A55G U108C,0.02
8,A33G U120C A134G,0.37
9,U37C A54U A92U A118G,1.31
10,A33U U38C U132A G136U,1.63
11,A33U A59G A116U U131C,0.36
12,A33U U37C A69G,1.08
13,A36G U38A A51G A54G A82G A86G,0.21
14,A33U A47G U87C U108C A117G,0
15,A36G A118G U132A,0.36
16,A36G A129G U132C,2.03
17,A33U A52G U72A U108C A135U,0.01
18,A36G A63U G73U,0.11
19,A36G A62G A89G,0.91
20,U37C A96G U139C,1.88
21,U37C A64U A126G U130C,0.51
22,A36U A94G A118G,0.51
23,U37A U43C A68G,2.58
24,A36G A51G A118G A129G,0.59

row,Variant,self-cleavage
1,A36G G75U A78U U102C,0.1
2,U37C A52G A117G U124A,1.78
3,A36U A68G U122A,0.5
4,A36C A60G A67G A69G,1.16
5,A36U U57C A110G,0.15
6,U37C A116G A117G,0.79
7,A36G A55G U70C,0.33
8,U37C G48A U87C,0.7
9,U37C A54G U132G,0.29
10,U37C A78U A95U,0.33
11,A36U A67G U103C,0.92
12,A33G U102C A111G,0.02
13,A33U U72C A95G U127C,0.22
14,U37C A86C U120A U130C,0.17
15,U37C G65U A68G,0.67
16,U37C U38G U49C A91G,1.12
17,A36C A82G A92G A118U U139G,0.07
18,U37A U39C U43A U72C U124C,0.07
19,A33U U49C A60U U72C,0.21
20,U37C A47G A69G U100C,1.78
21,A36U A64G U70C U108C A129G,0.01
22,C35A A55U A135G,1.22
23,A36G G58A U87C A96G A118G,1.3
24,U37C A54G U87C A96C,0.93

row,Variant,self-cleavage
1,A36G A66U A110G,0.11
2,U37C A52U U127C U139C,0.67
3,U37C A55G A62G A91G U108C A126G,0.03
4,U37C A52G G93U,2.07
5,A36U U37C A86G A111G U120C U131C,0
6,A36G A55U C101U,0.11
7,U37C A78G C101G,0.01
8,A36G U49A A82G,0.44
9,A36G U100C U122C,2.18
10,A36G A54G U102C A111G,0
11,A36G U43G A118U,1.16
12,A36U A55G C77U,0.77
13,U37C G48U G50U U103A,0.84
14,A36U U43C U70C A90U U108C A118G,0.01
15,A33U U37A U108C,0
16,U37C A62G A63G U87C A129G U130G,0.41
17,U37C A59G A62G,0.8
18,A33U A95G U103C,2.08
19,U37C A54U C76A U100C A116G U127C,0
20,A36G A52G A62G G106U,0.04
21,C35A A51U A118U,0.59
22,A33U A66G A96G,2.56
23,U37C A68G U87C,1.18
24,U37C A55G U130G,1.57

row,Variant,self-cleavage
1,A36G U38C U39C A92G U100A,0.45
2,U37C A56C A78U A95G,0.33
3,A36G A94G A126G,1.45
4,U37C A64G A86G,1.13
5,A33U U70A A125G,0.68
6,U37C A60U U122A,1.25
7,A36G A95G U103C U120C,0.3
8,U37C U38A A82G,0.67
9,A36U A51U A52G A126G,0.76
10,C34A A51G A64G A116G A118U,0.28
11,U37C A64U C88A U127C,0.43
12,C35U A59G A86U,0.78
13,A36G U49C G106A,0.01
14,U37C A67G A86G C113U,0.02
15,U37C A52G U131C,1.03
16,U37C A51G A140G,1.61
17,A36G A54U U57A U72C,0.28
18,A36U A55U A94G A117G,1.33
19,U37C U49A A117G,1.64
20,U37C C105U G115A C128G,0
21,A33U U38C A56G U100C,2.28
22,A36U A52G A92G C113U U139C,0.07
23,A36G U39C A51G A67G U122A,0.71
